# Measurements from PubChem BioAssay AID2147 (National Center for Advancing Translational Sciences (NCATS), 2009).
# About 3,600 (1.6%) of roughly 230,000 compounds were called active. Inconclusive results, whose numbers are uncertain, are shown with a selection of clear calls. Calls follow the shape of the dose curve; as a rule, active = well fitted inhibition curve with a large enough effect (not every such curve was filed as active); inconclusive = small, poorly fitted or top-dose-only effect, or another doubt; inactive = no such curve, though single readings can be large or run the other way. Potencies beside an inconclusive call are fits to weak or partial responses and may not hold up.
# Target: Lysine-specific demethylase 4E (Homo sapiens) (UniProt B2RXH2)
# Assay: qHTS Assay for Inhibitors of Human Jumonji Domain Containing 2E (JMJD2E)
# Conditions: JMJD2E catalytic domain, FDH-coupled NADH fluorescence (FDH is formaldehyde dehydrogenase); series mostly up to 57.1 µM
# Source text: Assay Provider: Structural Genomics Consortium [SGC] Screening Center PI: Austin, C.P. Screening Center: NIH Chemical Genomics Center [NCGC] The fine interplay among methylation states of several lysine residues on the tails of histone proteins is a major determinant of the transcriptional state of the associated DNA coding regions and is commonly referred to as the histone code. Histone lysine demethylases catalyze the removal of methyl groups from methylated lysine sidechains on histones H3 and H4, thus antagonizing the reactions catalyzed by histone lysine methyltransferases. […] In search for novel inhibitors of JMJD2E demethylase, a member of the largest set of histone demethylases belonging to the Fe(II) and 2-oxoglutarate oxygenase (2OG) superfamily, we performed a quantitative high-throughput screen (Inglese 2006) by using an assay which utilizes a trimethylated peptide substrate corresponding to a fragment of histone H3 (sequence ARKme3STGGK) with detection of the formaldehyde co-product in real time by a formaldehyde dehydrogenase (FDH) coupled reaction. FDH catalyzes oxidation of formaldehyde to formic acid with the concomitant reduction of the non-fluorescent beta-nicotinamide adenine dinucleotide hydrate (NAD+) cofactor to the fluorescent NADH co-product. References: Inglese, J., Auld, D., Jadhav, A., Johnson, R., Simeonov, A., Yasgar, A., Zheng, W. and Austin, C. Proc Natl Acad Sci USA 2006, 103, 11473-11478. N. R. Rose, S. S. Ng, J. Mecinovic, B. M. Lienard, S. H. Bello, Z. Sun, M. A. McDonough, U. Oppermann and C. J. Schofield, J Med Chem, 2008, 51, 7053-7056. Sakurai, M., Rose, N., Schultz, L., Quinn, A., Jadhav, A., Ng, S., Oppermann, U., Schofield, C.J. and Simeonov, A. Mol BioSystems 2009, in press. S. Michael, D. Auld, C. Klumpp, A. Jadhav, W. Zheng, N. Thorne, C. Austin, J. Inglese and A. Simeonov, Assay Drug Dev Technol, 2008, 6, 637-657.
# Reagents and Controls: Ferrous ammonium sulfate, (+)-sodium L-ascorbate, beta-nicotinamide adenine dinucleotide hydrate (NAD+), Tween-20, formaldehyde dehydrogenase from P. putida (FDH), and disodium 2-oxoglutarate were from Sigma (St. Louis, MO). Black solid-bottom 384-well or 1,536-well assay plates were from Greiner Bio-One (Monroe, NC). Enzyme was supplied by Prof. Udo Oppermann, SGC-Oxford. The catalytic domain of human JMJD2E (residues 1-337) was produced as an N-terminally His6-tagged protein in E. coli, and purified by Ni-affinity chromatography and size-exclusion chromatography, and stored in HEPES 50 mM/ NaCl 500 mM pH 7.5, as reported in Rose 2008. The trimethylated histone peptide substrate ARK(me3)STGGK was synthesized and HPLC-purified by the Tufts University Core Facility (Boston, MA). Substrate solution (Sakurai 2009) contained 50 uM ARK(me3)STGGK, 0.00025 U/uL FDH, 50 uM 2-oxoglutarate, 250 uM NAD+, 1 mM ascorbate, and 10 uM ferrous ammonium sulfate. Controls and plate map: Buffer (150 mM HEPES pH 7.5 containing 0.01% Tween-20) in columns 3 and 4 as negative control (no enzyme) and 100 nM JMJD2E final concentration in columns 1,2, and 5-48. Assay Steps: Enzyme and buffer solutions (3 uL) were dispensed into a 1,536-well Greiner black solid-bottom assay plate. The library compounds (23 nL) were transferred using a Kalypsys pintool equipped with 1,536-pin array. The plate was incubated at room temperature (15 min), and then a 1 uL aliquot of substrate solution was added to initiate the reaction. The plate was transferred to ViewLux imager where an initial reading using standard UV optics (Ex 340 nm, Em 450 nm) was obtained. The plate was then removed from the reader, incubated for 30 minutes at room temperature, and returned to the reader for a second fluorescence reading. A fully automated robotic screening system (Kalypsys Inc, San diego, CA) was used to perform the above steps as described previously (Michael 2008). […]
# Also: nearly all actives have a fitted effect of over 50% in size.
# Potency is read from the fitted curve at half-maximal effect; tags tell the direction and shape of the fitted curve.
# Chain of UniProt B2RXH2 (B2RXH2 whole entry, looked up, the tested form may be a part): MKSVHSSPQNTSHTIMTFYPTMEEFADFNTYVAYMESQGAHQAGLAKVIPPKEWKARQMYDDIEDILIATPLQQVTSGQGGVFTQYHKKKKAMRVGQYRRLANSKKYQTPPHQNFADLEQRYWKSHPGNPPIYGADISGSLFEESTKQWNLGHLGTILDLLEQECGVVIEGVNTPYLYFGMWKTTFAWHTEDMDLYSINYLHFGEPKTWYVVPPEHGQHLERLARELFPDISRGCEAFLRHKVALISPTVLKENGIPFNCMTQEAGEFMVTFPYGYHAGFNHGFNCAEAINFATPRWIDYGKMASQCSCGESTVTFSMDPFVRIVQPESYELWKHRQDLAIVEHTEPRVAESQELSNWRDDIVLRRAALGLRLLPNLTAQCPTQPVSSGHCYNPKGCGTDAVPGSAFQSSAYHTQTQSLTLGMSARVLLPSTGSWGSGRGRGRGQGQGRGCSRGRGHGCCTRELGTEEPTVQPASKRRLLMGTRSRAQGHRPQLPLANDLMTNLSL
row,Structure (SMILES),Potency
1,CCOc1ncccc1C(=O)Nc1ccc(Cl)c(S(=O)(=O)N2CCCC2)c1,inactive
2,COc1cc(CN2CCNC(=O)C2CC(=O)NCCc2ncccc2C)cc(OC)c1 (configuration not stated),"inconclusive: 39.8 µM [inhibitor, single point]"
3,O=c1c2cc(NC(=S)NC3CC3)ccc2nc2n1CCCCC2,"inconclusive: 31.6 µM [inhibitor, single point]"
4,O=C(/C=C/c1ccc(S(=O)(=O)N2CCOCC2)cc1)NCCCn1ccnc1,inactive
5,CCOC(=O)c1sc(=NC(=O)/C=C/c2cccs2)n(C)c1C,"inconclusive: 6.31 µM [inhibitor, full curve]"
6,COc1ccccc1NC(=O)N(Cc1ccco1)Cc1cc2c(C)ccc(C)c2[nH]c1=O,"inconclusive: 39.8 µM [inhibitor, single point]"
7,C=CCNC(=S)NNc1nc2c(c(=O)[nH]1)C1(CCCCC1)Cc1ccccc1-2,"inconclusive: 25.1 µM [inhibitor, partial curve]"
8,CCC(=O)NCCCNc1nc2c(C)cccc2cc1C#N,"inconclusive: 14.1 µM [inhibitor, partial curve]"
9,CCOC(=O)c1c(NC(=O)CNC2CCCCC2)sc(C)c1C,inactive
10,COc1ccc(-c2cc(C(F)(F)F)nc(N3CCOCC3)n2)cc1OC,"inconclusive: 31.6 µM [inhibitor, single point]"
11,CN1CCN(S(=O)(=O)c2cc([N+](=O)[O-])ccc2N/N=C/c2ccc(Cl)cc2)CC1,inactive
12,Nc1nc(N)c2c(ccc3nccc32)[nH]1,"inconclusive: 35.5 µM [inhibitor, partial curve]"
13,Cc1cc(C)c2c(=O)n(CC(=O)NC3CCCC3)sc2n1,"inconclusive: 31.6 µM [inhibitor, partial curve]"
14,CC1(C)Cc2c(ccc3ccccc23)C(=O)N1,"inconclusive: 39.8 µM [inhibitor, single point]"
15,COc1cc(/C=C/C(=O)OCC(=O)NCCN2C(=O)CSC2=O)ccc1OC(F)F,"inconclusive: 25.1 µM [inhibitor, partial curve]"
16,CCC1=NN(C(=O)CCc2ccc3c(c2)OCO3)C(O)(C(F)(F)F)C1 (configuration not stated),"inconclusive: 22.4 µM [inhibitor, partial curve, poor fit]"
17,NC(=O)CSc1cn(Cc2ccccc2)c2ccccc12,inactive
18,Cc1nc2ccccn2c1-c1ccnc(SCc2ccc(Cl)cc2)n1,"inconclusive: 22.4 µM [inhibitor, partial curve]"
19,Cc1cc(=O)n2c3ccccc3n(CC(O)CN3CCCCC3)c2c1C#N (configuration not stated),"inconclusive: 39.8 µM [inhibitor, single point]"

row,Structure (SMILES),Potency
1,CC(=O)c1c(O)c(C)c(O)c2c1OC1=CC(=O)C(C(C)=O)C(=O)[C@@]12C (some centres not stated),inactive
2,CCn1ncc(Br)c1C(=O)Nc1cc([N+](=O)[O-])ccc1C,inactive
3,O=C(COC(=O)Cn1cnc2ccccc21)NCCc1ccccc1,inactive
4,O=C1OC(Nc2ccc3c(c2)OCO3)c2ccccc21 (configuration not stated),"inconclusive: 35.5 µM [inhibitor, partial curve]"
5,COC(=O)c1ccccc1COn1c(=O)c(C)[n+]([O-])c2ccccc21,inactive
6,CN(C)c1ccc(/C=N/N=C(N)N)cc1[N+](=O)[O-],inactive
7,CC(=O)OCCCNc1cc(Sc2ccc(Cl)cc2)c2nonc2c1[N+](=O)[O-],inactive
8,Cc1ccc(N=Nc2ccc(O)c3ncccc23)cc1,inactive
9,Clc1ccccc1-c1nnc(-c2ccc3c(c2)OCO3)o1,"inconclusive: 31.6 µM [inhibitor, partial curve]"
10,CN1CCN(C(=O)C2=C[C@@H](c3ccccc3)C[C@@H](OCc3ccc(CO)cc3)O2)CC1,inactive
11,CCCCC(CC)C1OCC(C[N+]2(C)CCOCC2)O1 (configuration not stated),inactive
12,NC(=O)c1cn(-c2ccccc2)nc1-c1cc2ccccc2oc1=O,"inconclusive: 25.1 µM [inhibitor, partial curve]"
13,CCN(C(=O)Cc1c(C(=O)O)[nH]c2ccccc12)c1ccc(OC)cc1,inactive
14,CC(Nc1ccccc1N1CCCCC1)C(=O)N1CCc2ccccc21 (configuration not stated),inactive
15,CCCCCn1c(=NC(=O)c2ccco2)c(C(=O)OCC)cc2c(=O)n3ccccc3nc21,"inconclusive: 31.6 µM [inhibitor, partial curve]"
16,COc1cc(/C=N/NC(=O)C2COc3ccccc3O2)cc(OC)c1OC (configuration not stated),"inconclusive: 35.5 µM [inhibitor, single point]"
17,Cc1nnc2n(Cc3ccccc3)c(=O)c3c4c(sc3n12)COC(C)(C)C4,inactive
18,CN(C(=O)COC(=O)c1ccc2[nH]c3c(c2c1)CCCC3)C1CCS(=O)(=O)C1 (configuration not stated),"inconclusive: 28.2 µM [inhibitor, single point]"
